Results: PubChem BioAssay AID938 (National Center for Advancing Translational Sciences (NCATS), 2007)
Among all 73,000 compounds or so, about 1,800 (2.5%) were called active. The inconclusive results got no clear call from the source; some entries with a clear call stand among them for comparison. Calls come from the whole dose curve; as a rule, active = well fitted activation curve with a large enough effect; inconclusive = small, poorly fitted or top-dose-only effect; inactive = no such curve, though single readings can be large or run the other way. No potency is given beside an inconclusive call; the fits are too rough.

Experiment: qHTS Assay for Agonists of the Thyroid Stimulating Hormone Receptor: Activators of Intracellular cAMP Concentrations in Parental HEK 293; note: nearly all actives have a fitted effect of over 55% in size; for activation: % of control where 0% means no effect
Conditions: parental HEK293 CNG cAMP sensor, membrane potential fluorescence; activation: at 57.1 µM (top of the series) unless noted
Outline: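 Parental HEK 293 cells stably expressing a modified CNG channel (no TSHR) report cAMP rise as membrane depolarization. Membrane potential dye with 100 uM RO 20-1724 was loaded for 60 min at room temperature, then compound added for 30 min; fluorescence read at 590 nm.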
Potency is the fitted concentration of half-maximal effect; tags give direction and shape of the fitted curve.

Structure (SMILES) | Potency | activation
Cc1cccc(N2CCN(C(=O)c3cn(C)c(=O)c4c3c3ccccc3n4C)CC2)c1C | inactive | 
Cc1cc(C)c2cc(CN(CCO)Cc3nnnn3Cc3ccccc3)c(=O)[nH]c2c1 | inconclusive [activator, single point] | 
Cc1cccn2c(=O)c3cc(C#N)c(=O)n(-c4c(C)n(C)n(-c5ccccc5)c4=O)c3nc12 | inactive | 
Cc1ccc(OCC(O)CN2CCN(CC(O)COc3ccc(C)cc3)CC2)cc1 (centres undefined) | inconclusive [activator, partial curve] | 
COc1ccc(-n2c(=O)c(-c3ccccc3)nc3cnc(N4CCOCC4)nc32)cc1 | inactive | 
O=C(c1ccncc1)N1CCC2(CCN(Cc3nccs3)CC2)CC1 | inactive | 
O=C1c2ccccc2C(Nc2ccc(Cl)cn2)N1c1cccnc1 (centres undefined) | inconclusive [activator, single point] | 
O=c1cc(-c2ccccc2)oc2cc(O)c(O)c(O)c12 | inactive | 
Cn1cccc1C(C(=O)NC1CCCCC1)N(C(=O)Cc1cccs1)c1ccc2c(c1)OCO2 (centres undefined) | inconclusive [activator, partial curve] | 
N#Cc1nc(-c2ccc(F)cc2)oc1NCc1cccc2c1OCO2 | inconclusive [activator, partial curve, poor fit] | 
CCN(CCCNC(=O)CCCN1C(=O)COc2ccc(C)cc21)c1cccc(C)c1 | inactive | 
Cc1cc(Nc2ccc(Br)c(C)c2)n2nc(C)nc2n1 | inconclusive [activator, single point] | 
CCOC(=O)C1=C(N)n2c(s/c(=C\c3ccco3)c2=O)=C(C(=O)OCC)C1c1ccco1 (centres undefined) | inactive | 
Cc1csc(NC(=O)C(NS(=O)(=O)c2ccc(Br)s2)c2ccccc2)n1 (centres undefined) | inactive | 
O=C(O)[C@H](Cc1ccccc1)N1C(=O)c2ccncc2C1=O | inconclusive [activator, full curve, poor fit] | 
C/C=C(\C)CN1CCN(c2cc(C)ccc2C)CC1 | inconclusive [activator, partial curve, poor fit] | 
Cc1noc(C)c1-c1ccc2ncnc(NCCN3CCOCC3)c2c1 | inactive | 
Cn1c(=O)c2c(nc(NC(Cc3ccccc3)C(=O)O)n2Cc2ccccc2)n(C)c1=O (centres undefined) | inconclusive [activator, single point] | 
CCN(CC)CCOC(=O)c1ccc(N)cc1 | inconclusive [activator, single point] | 
O=C(CON1C(=O)c2ccccc2C1=O)c1ccccc1 |  | inactive: -4.11% [at 11.4 µM]
C=CCn1c(SCn2nnc3ccccc3c2=O)nnc1-c1ccc(Br)cc1 | inconclusive [activator, partial curve, poor fit] | 
Cc1cnc(CNc2ncnc3ccc(-c4ccccc4C)cc23)cn1 | inconclusive [activator, partial curve] | 

Structure (SMILES) | Potency | activation
CC(=O)Nc1ccc(CN2CCCCCCC2)cc1 | inactive | 
CCCn1nc(C(=O)Nc2cc(C(=O)OC)ccc2C)c2ccccc2c1=O | inconclusive [activator, partial curve] | 
COc1ccc(-n2c(O)c(C=NC3CC3)c(=O)[nH]c2=O)cc1 | inconclusive [activator, partial curve, poor fit] | 
Cc1ccc(S(=O)(=O)N2C(=O)CCC2C(=O)Nc2ccc3c(c2)OCCO3)cc1 (centres undefined) | inactive | 
CC(C)CN1CCCC2(CCN(S(=O)(=O)c3ccccc3)CC2)C1 | inconclusive [activator, single point] | 
CC(=O)OC1COC(n2ccc3ccccc32)C(OC(C)=O)C1OC(C)=O (centres undefined) | inconclusive [activator, single point] | 
O=c1c2ccccc2nc2n1CCCCC2 | inactive | 
COc1cccc(Cn2c(=O)c(C)nc3cnc(Oc4ccccc4)nc32)c1 | active: 12.6 µM | 
CC[C@H](C)C(=O)O[C@H]1C[C@@H](C)C=C2C=C[C@H](C)[C@H](CC[C@@H]3C[C@@H](O)CC(=O)O3)[C@H]21 | inconclusive [activator, single point] | 
Cc1ccc(Cn2c(CN(C)Cc3ccccc3)nc3c2c(=O)n(C)c(=O)n3C)cc1 | inconclusive [activator, single point] | 
CC(=O)N1CCC2(CCN(Cc3nccs3)CC2)CC1 | inconclusive [activator, single point] | 
COc1ccc(C(=O)c2coc3ccc(O)c(CN4CCCC4)c23)cc1 | inconclusive [activator, single point] | 
COC(=O)c1ccc(CSc2nc3c(c(=O)n2-c2ccccc2)SCC3)o1 | inactive | 
CC(C)C12CCC(C(=O)O)C(C1)C(=O)O2 (centres undefined) | inconclusive [activator, single point] | 
Clc1ccc(Cc2noc(Cc3ccccc3)n2)cc1Cl | inconclusive [activator, single point] | 
Cc1ccc(CNC(=O)CCCn2c(=O)c3ccccc3n(CC(=O)NCc3ccco3)c2=O)cc1 | inconclusive [activator, single point] | 
COc1ccc(N(C2CSC2)S(=O)(=O)c2ccccc2)cc1 | inconclusive [activator, single point] | 
CCCOc1ccc(NC(=O)C2CC(=O)N3CCCN=C3S2)cc1 (centres undefined) | inconclusive [activator, single point] | 
O=C(CSc1nc2cc3c(cc2c(=O)n1CCC1=CCCCC1)OCO3)NCc1ccco1 | inconclusive [activator, partial curve] | 
CCN(CC)c1ccc(NC(=O)CN2CCN(c3nc(C)cc(C)n3)CC2)cc1 | inconclusive [activator, partial curve] | 
CCC1Oc2ccc(C)cc2N(CC(=O)N(Cc2cccnc2)Cc2ccc(C)o2)C1=O (centres undefined) | inconclusive [activator, partial curve] | 
CCCCNC(=O)CS(=O)Cc1nc(-c2ccc(C)cc2)oc1C (centres undefined) | inconclusive [activator, single point] | 
